Values joined by “and” are separate entries in the source; they are usually repeats but may differ in a detail not shown here. Identical values can stand only once.
Key:
C2C12 mouse myoblasts = assay: Host cell cytotoxicity in T. cruzi assay; conditions: for highest concentration without toxicity to host cells: murine host cells
[1] = tested on: T. cruzi CA-I/72 intracellular amastigote; assay: Cell-based intracellular T. cruzi amastigote assay
Cathepsin L [2] = biological target: T1, Cathepsin L (Homo sapiens, UniProt P07711); assay: Cathepsin L kinetic assay; conditions: for Ki: initial reversible binding, regressed from progress curves, 10 μM Z-FR-AMC
Cathepsin L [3] = biological target: T1, Cathepsin L; assay: Preincubation-dilution reversibility experiment; assay type: biochemical
[4] = tested on: epimastigotes (insect) stage of T. cruzi; conditions: previous studies; cited from earlier work

SMILES: CC[C@H](C)[C@@H](C(=O)O[C@@H](CC(C)C)C(=O)N[C@@H](CC(C)C)C(=O)N[C@@H](C)/C=C/C(=O)N1C(=O)C=C(OC)[C@@H]1CC(C)C)N(C)C [compound 5, (S)-1-(((S)-1-(((S,E)-5-((S)-2-Isobutyl-3-methoxy-5-oxo-2,5-dihydro-1H-pyrrol-1-yl)-5-oxopent-3-en-2-yl)amino)-4-methyl-1-oxopentan-2-yl)amino)-4-methyl-1-oxopentan-2-yl dimethyl-L-isoleucinate]
- highest concentration without toxicity to host cells (C2C12 mouse myoblasts): > 10 µM
- activity to the host cell (C2C12 mouse myoblasts; stated in abstract): relatively inactive
- IC50 (antiparasitic activity) ([1]; intracellular amastigotes in C2C12 cells, 72 h): single digit nanomolar

SMILES: CC[C@H](C)[C@@H](C(=O)O[C@@H](CC(C)C)C(=O)N[C@@H](CC(C)C)C(=O)N[C@H](/C=C/C(=O)N1C(=O)C=C(OC)[C@@H]1Cc1ccccc1)Cc1ccccc1)N(C)C [compound 8, (S)-1-(((S)-1-(((S,E)-5-((S)-2-Benzyl-3-methoxy-5-oxo-2,5-dihydro-1H-pyrrol-1-yl)-5-oxo-1-phenylpent-3-en-2-yl)amino)-4-methyl-1-oxopentan-2-yl)amino)-4-methyl-1-oxopentan-2-yl dimethyl-L-isoleucinate]
- kinact/KI (Cathepsin L [2]): 719000 M⁻¹ s⁻¹

SMILES: C#CCCCCOC1=CC(=O)N(C(=O)/C=C/[C@H](C)NC(=O)[C@H](CC(C)C)NC(=O)[C@H](CC(C)C)OC(=O)[C@H]([C@@H](C)CC)N(C)C)C1C (stereo in doubt) [compound 16, (S)-1-(((S)-1-(((S,E)-5-((S)-3-(Hex-5-yn-1-yloxy)-2-methyl-5-oxo-2,5-dihydro-1H-pyrrol-1-yl)-5-oxopent-3-en-2-yl)amino)-4-methyl-1-oxopentan-2-yl)amino)-4-methyl-1-oxopentan-2-yl dimethyl-L-isoleucinate]
- Ki (Cathepsin L [2]): sub-nanomolar

SMILES: CC[C@H](C)[C@@H](C(=O)O[C@@H](CC(C)C)C(=O)N[C@@H](CC(C)C)C(=O)N[C@@H](C)CCC(=O)N1C(=O)C=C(OC)[C@@H]1C)N(C)C [compound 17, (S)-1-(((S)-1-(((S)-5-((S)-3-Methoxy-2-methyl-5-oxo-2,5-dihydro-1H-pyrrol-1-yl)-5-oxopentan-2-yl)amino)-4-methyl-1-oxopentan-2-yl)amino)-4-methyl-1-oxopentan-2-yl dimethyl-L-isoleucinate]
- catalytic activity upon dilution (Cathepsin L [3]; of initial activity, 1 hour of kinetic readings): approximately 75%
- mode of inhibition (Cathepsin L [3]; preincubation-dilution): reversible

SMILES: CC[C@H](C)[C@@H](C(=O)O[C@@H](CC(C)C)C(=O)N[C@@H](CC(C)C)C(=O)N[C@@H](/C=C/C(=O)N1C(=O)C=C(OC)[C@H]1Cc1ccccc1)Cc1ccccc1)N(C)C [compound 15, (S)-1-(((S)-1-(((R,E)-5-((R)-2-Benzyl-3-methoxy-5-oxo-2,5-dihydro-1H-pyrrol-1-yl)-5-oxo-1-phenylpent-3-en-2-yl)amino)-4-methyl-1-oxopentan-2-yl)amino)-4-methyl-1-oxopentan-2-yl dimethyl-L-isoleucinate]
- kinact/KI (Cathepsin L [2]): 23900 M⁻¹ s⁻¹

SMILES: COC1=CC(=O)N(C(=O)/C=C/[C@H](Cc2ccccc2)NC(=O)[C@H](CC(C)C)NC(=O)[C@H](CC(C)C)OC(=O)[C@H](C(C)C)N(C)C)[C@H]1CC(C)C [compound 11, (S)-1-(((S)-1-(((S,E)-5-((S)-2-Isobutyl-3-methoxy-5-oxo-2,5-dihydro-1H-pyrrol-1-yl)-5-oxo-1-phenylpent-3-en-2-yl)amino)-4-methyl-1-oxopentan-2-yl)amino)-4-methyl-1-oxopentan-2-yl dimethyl-L-valinate]
- Ki (Cathepsin L [2]): sub-nanomolar

SMILES: CC[C@H](C)[C@@H](C(=O)O[C@@H](CC(C)C)C(=O)N[C@@H](CC(C)C)C(=O)N[C@@H](/C=C/C(=O)N1C(=O)C=C(OC)[C@@H]1Cc1ccccc1)Cc1ccccc1)N(C)C [compound 14, (S)-1-(((S)-1-(((R,E)-5-((S)-2-Benzyl-3-methoxy-5-oxo-2,5-dihydro-1H-pyrrol-1-yl)-5-oxo-1-phenylpent-3-en-2-yl)amino)-4-methyl-1-oxopentan-2-yl)amino)-4-methyl-1-oxopentan-2-yl dimethyl-L-isoleucinate]
- kinact/KI (Cathepsin L [2]): 6900 M⁻¹ s⁻¹
- reduction in activity (cathepsin L) (Cathepsin L [2]; d-Phe at fourth residue (R'), comparing 8 with 14): > 100 fold

SMILES: CC[C@H](C)[C@@H](C(=O)O[C@@H](CC(C)C)C(=O)N[C@@H](CC(C)C)C(=O)N[C@H](/C=C/C(=O)N1C(=O)C=C(OC)[C@@H]1CC(C)C)Cc1ccccc1)N(C)C [compound 10, (S)-1-(((S)-1-(((S,E)-5-((S)-2-Isobutyl-3-methoxy-5-oxo-2,5-dihydro-1H-pyrrol-1-yl)-5-oxo-1-phenylpent-3-en-2-yl)amino)-4-methyl-1-oxopentan-2-yl)amino)-4-methyl-1-oxopentan-2-yl dimethyl-L-isoleucinate]
- Ki (Cathepsin L [2]; Ki): 0.0937 nM and 0.094 nM
- Ki (Cathepsin L [2]): sub-nanomolar

SMILES: CC[C@H](C)[C@@H](C(=O)O[C@@H](CC(C)C)C(=O)N[C@@H](CC(C)C)C(=O)N[C@@H](C)/C=C/C(=O)N1C(=O)C=C(OC)[C@@H]1C)N(C)C [compound 1, Gallinamide A]
- kinact/KI (Cathepsin L [2]): 901000 M⁻¹ s⁻¹
- highest concentration without toxicity to host cells (C2C12 mouse myoblasts): > 10 µM
- activity against T. cruzi epimastigotes [4]: very low or no activity
- elimination of parasites from infected murine cells ([1]; 20 nM, nuclear stain images): eliminates the majority of parasites

SMILES: O=C(Cn1ccnc1[N+](=O)[O-])NCc1ccccc1 [benznidazole, reference compound]
- LD50 ([1]; positive control, same cell-based assay): 1.5 µM

SMILES: CC[C@H](C)[C@@H](C(=O)O[C@@H](CC(C)C)C(=O)N[C@@H](CC(C)C)C(=O)N[C@H](/C=C/C(=O)N1C(=O)C=C(OC)[C@H]1Cc1ccccc1)Cc1ccccc1)N(C)C [compound 12, (S)-1-(((S)-1-(((S,E)-5-((R)-2-Benzyl-3-methoxy-5-oxo-2,5-dihydro-1H-pyrrol-1-yl)-5-oxo-1-phenylpent-3-en-2-yl)amino)-4-methyl-1-oxopentan-2-yl)amino)-4-methyl-1-oxopentan-2-yl dimethyl-L-isoleucinate]
- kinact/KI (Cathepsin L [2]): 1.03e+06 M⁻¹ s⁻¹

From article PMC7240701 (Journal of medicinal chemistry, 2019)
